Each structure is given as a SMILES string. The campaign covered roughly 48,000 compounds. About 1,200 (2.5%) were called active. About 2% were inconclusive and are not listed.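 The calls were made as follows: active = activation of at least 60% and not above a set upper limit (about 1 call in 100 departs from these limits); inconclusive = activation of 40% to 60%, or above that upper limit; inactive = activation under 40%.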 Some of the results follow.

These results are taken from PubChem BioAssay AID1346428 (National Center for Advancing Translational Sciences (NCATS), 2018).

The target in the assay is Probable G-protein coupled receptor 32 (Homo sapiens) (UniProt O75388). Put plainly: qHTS for Agonists of Human Resolvin D1 Receptor DRV1. Also: 0% is about no effect. The following applies: CHO-K1 GPR32 beta-arrestin PathHunter luminescence, 90 min; at 76.9 µM; hits give high values; zero percent set by DMSO-only wells. A digest of the protocol: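 Step 1: seed CHO-K1 GPR32 beta-arrestin cells, 2,500/well, overnight at 37 °C. Step 2: add compounds, 90 min at 37 °C. Step 3: detection reagent, 1 h ambient, then luminescence.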
UniProt O75388, sequence (O75388 whole entry, looked up): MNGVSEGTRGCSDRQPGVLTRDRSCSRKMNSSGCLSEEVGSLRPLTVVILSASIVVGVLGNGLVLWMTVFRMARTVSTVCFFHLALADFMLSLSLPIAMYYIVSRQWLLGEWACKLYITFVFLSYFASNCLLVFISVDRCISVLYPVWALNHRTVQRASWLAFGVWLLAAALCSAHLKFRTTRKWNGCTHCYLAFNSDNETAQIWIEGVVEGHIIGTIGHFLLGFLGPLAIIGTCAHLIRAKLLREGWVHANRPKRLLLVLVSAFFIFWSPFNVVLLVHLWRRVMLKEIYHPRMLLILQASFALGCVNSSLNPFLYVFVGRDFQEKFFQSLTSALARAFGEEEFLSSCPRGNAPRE
Background: qHTS replaces the single test concentration by a dilution series.
For `Cc1cc(C)c(C)c(OCC(=O)Nc2ccc(S(=O)(=O)Nc3nc(C)cc(C)n3)cc2)c1`, the activation is inactive: 47%.

Regarding `Cc1ccccc1NC(=O)Nc1nnc(N2CCCCCC2)s1`, the activation was inactive: -0.891%.

Turning to `COc1ccccc1NC(=O)CCn1nc(-c2ccccc2OC)c2c(C)cc(C)nc21`, the activation is inactive: 37%.

On to `CCC(=O)N1CCc2cc(Br)cc(S(=O)(=O)CCC(=O)N3CCN(c4ccc(F)cc4)CC3)c21`, for which the activation is inactive: 1.23%.

Take `Cc1ccccc1OCC(=O)OCc1cc(=O)n2nc(C3CC3)sc2n1`: the activation was inactive: 0.4%.

As to `CCOC(=O)C1CCCN(C(=O)C2CCN(S(=O)(=O)c3c(C)noc3/C=C/c3ccccc3F)CC2)C1` (centres undefined), the activation is inactive: -1.81%.

For `CCc1ccc(NC(=O)CC2C(=O)N(c3cccc(C)c3)C(=O)N2CCC(C)C)cc1` (centres undefined), the activation is inactive: -19%.

Consider `COc1ccccc1OCC(O)COC(N)=O` (centres undefined), for which the activation is inactive: -10.3%.

Regarding `O=C(CSC1=Nc2ccccc2N=C(c2ccc(F)cc2)C1)Nc1cccc(C(F)(F)F)c1`, the activation is inactive: -3.5%.

Regarding `COc1ccc(CC(=O)NCCc2sc3nc(-c4ccc(OC)cc4)nn3c2C)cc1`, the activation is inactive: -14.2%.

Consider `CCC(C)NC(=O)Cn1c(=O)n(CCCCCC(=O)NCc2ccccc2Cl)c(=O)c2sccc21` (centres undefined), for which the activation was inactive: -11.8%.

With `CC(=O)c1ccc(NC(=O)c2cc(-c3ccc(C)s3)nc3ccccc23)cc1`, the activation was inactive: -7.87%.

Regarding `O=C(NCc1cccc(Br)c1)c1cnn(-c2ccc(F)cc2)c1-n1cccc1`, the activation is inactive: 2.03%.

Consider `CC(C)(C)CC(=O)NCC(c1ccc2c(c1)OCO2)N1CCN(c2ccccc2)CC1` (centres undefined), for which the activation is inactive: -23.8%.

With `O=C1C(c2ccc(F)cc2)N(CCc2ccc(Cl)cc2)C(=O)CN1C1CCCCCC1` (centres undefined), the activation is inactive: -19.1%.

Consider `CCOC(=O)N1CCc2c(sc3c2c(=O)n(CCc2ccccc2)c(=O)n3CC(=O)Nc2ccc(C)cc2)C1`, for which the activation was inactive: -9.29%.

Regarding `COc1cc(NC(=O)N2c3ccccc3Sc3ccccc32)cc(OC)c1`, the activation is inactive: -11.6%.

With `O=C(CSc1nccn1-c1ccc(Cl)cc1)Nc1ccc(Cl)c(Cl)c1`, the activation was inactive: -4.98%.

With `CCOC(=O)c1ccc(NC(=O)CSc2ccc3ccccc3n2)cc1`, the activation was inactive: -26.4%.

With `COc1ccccc1C(=O)NCC(c1cccnc1)N1CCc2ccccc2C1` (centres undefined), the activation is inactive: -37.8%.

On to `CCCOC(=O)c1c(NC(=O)C(C)Sc2nc(-c3ccccc3)cc(C(F)(F)F)n2)sc(C(=O)N(C)C)c1C` (centres undefined), for which the activation is inactive: -2.87%.

Turning to `CN1CCc2c(sc(NC(=O)CSc3ccccc3)c2-c2nc3ccccc3s2)C1`, the activation was inactive: -33.1%.

As for `Cc1cccc(N2CCN(C(=O)CN3C(=O)CSc4c3c(C)nn4-c3ccccc3)CC2)c1C`, the activation was inactive: -29.9%.

Turning to `COc1cc(NC(=O)CCc2c(C)nn(-c3ccc4nnc(C)n4n3)c2C)cc(OC)c1OC`, the activation is inactive: -5.45%.

For the molecule `CN(C)CCNC(=O)C1CCN(Cc2cc3ccccc3n2Cc2ccccc2)CC1`, the activation is active: 63.9%.

As to `CCOc1ccc(S(=O)(=O)c2c(C(=O)c3ccc(CC)cc3)cnc3ccc(C)cc23)cc1`, the activation was inactive: -5.41%.

Take `CCc1ccc(NC(=O)[C@H](Cc2ccccc2)N2Cc3ccccc3C2=O)cc1`: the activation was inactive: 21.6%.

In the case of `CCOc1ccc(N2CC(NC(=O)c3cccs3)CC2=O)cc1` (centres undefined), the activation is inactive: -13.8%.

As for `CCCN(CCC)CCCNC(=O)c1cc2c(-c3ccc(OC)c(OC)c3)nn(C)c2s1`, the activation was inactive: -1.27%.

As to `COc1ccc(C2C(=O)N(C3CCCCCC3)CC(=O)N2Cc2ccc(C)cc2)cc1` (centres undefined), the activation is inactive: -17.9%.

With `O=C1CC(c2nc(-c3ccc(Cl)cc3)no2)CN1c1ccc2c(c1)OCCO2` (centres undefined), the activation was inactive: -5.41%.

Turning to `O=C(CSc1nc2c([nH]c3ccccc32)c(=O)n1-c1ccccc1)N1CCc2ccccc21`, the activation is inactive: -4.19%.

As to `Cc1ccc(S(=O)(=O)n2nc(-c3ccccc3)nc2NCc2ccc(Cl)cc2)cc1`, the activation is inactive: -1.52%.

With `COc1cccc(CNC(=O)COc2cc(=O)n(C)c3ccccc23)c1`, the activation was inactive: 0.765%.

With `Cc1ccc(-n2nnnc2CNC(=O)c2cc(C(F)(F)F)cc(C(F)(F)F)c2)cc1C`, the activation was inactive: -31.4%.

Take `CCCCOC(=O)CC(CC(=O)OCCCC)(OC(C)=O)C(=O)OCCCC`: the activation is inactive: -5.99%.

Turning to `O=C(Cn1nc(C(F)(F)F)c2c1CCCC2)Nc1ccc(Br)cc1`, the activation is inactive: -0.4%.

`Cc1ccc(N2CCN(S(=O)(=O)c3cccc4ccccc34)CC2)cc1Cl`: the activation is inactive: -0.412%.

For the molecule `COc1ccccc1S(=O)(=O)Cc1ccc(C(=O)NCc2ccc(Cl)cc2)o1`, the activation is active: 97.6%.

Consider `COc1ccc(-n2ncc3c(NC4CCCC4)ncnc32)cc1`, for which the activation was inactive: 31.2%.

Consider `COc1ccc(S(=O)(=O)Nc2ccc(-c3cn4c(C)csc4n3)cc2)cc1`, for which the activation was inactive: -7.34%.

Take `O=C(Nc1cccc(C(F)(F)F)c1)c1cc(CN2CCOCC2)on1`: the activation is inactive: 3.56%.

For the molecule `CCCNc1ccc(-c2nc(-c3ccccn3)no2)cc1[N+](=O)[O-]`, the activation is inactive: 4.3%.

`O=C(Nc1ccccc1F)c1ccc2c(Cl)c3c(nc2c1)CCC3`: the activation is inactive: 22%.

As for `CC(=O)c1c(C)oc2c1cc(NS(=O)(=O)c1ccc(Br)cc1)c1ccccc12`, the activation is active: 80%.

On to `CCCCNC(=O)c1ccc2c(c1)ncn2-c1cc(OC)ccc1OC`, for which the activation is inactive: -14.5%.

Consider `Cc1c(Cl)cccc1-n1ncc(C(=O)Nc2ccc(Br)cc2F)c1C1CCNCC1`, for which the activation was inactive: 10.3%.

As to `CCN(CCCNC(=O)c1nn(-c2ccc(OC)cc2)c(=O)c2c1c1ccccc1n2C)c1ccccc1`, the activation is inactive: -8.52%.

Regarding `COC(=O)c1ccc(NC(=O)CCn2cnnn2)cc1`, the activation is inactive: 8.23%.

Regarding `CCOc1ccccc1CNCc1cccn1-c1nnc(N2CCN(c3ccccc3)CC2)s1`, the activation is inactive: 48.3%.

Take `COc1ccccc1NC(=O)C1=C(C)Nc2nnnn2C1c1ccc(C(F)(F)F)cc1` (centres undefined): the activation is inactive: 3.45%.

For `CCc1cccc(NC(=O)CCNS(=O)(=O)c2cccc3nonc23)c1`, the activation is inactive: -11.9%.

On to `COC(=O)c1ccc(NC(=O)c2nc(-c3ccc(Cl)cc3)n3c2CCCCC3)cc1`, for which the activation is inactive: -16.7%.

Regarding `Cc1ccc2nc3sc(C(=O)NCCCN(C)c4ccccc4)cc3cc2c1`, the activation was inactive: -2.21%.
